Values marked as one replicate rest on one cluster of the flow cell; about a third of the high ones do not repeat.
Test system: ATP
Experiment: switch fluorescence ratio, 500 uM ATP over buffer (Cy3 cluster intensity, sum of 5 cycles each) (fold (ratio)); higher = stronger signal-on switching upon ATP binding; sequences stand for … in TCGTCGGCAGCGTCAGATGTGTATAAGAGACAGTTTTTTTTTTTTTTTTTTTTTTTTT…TC
Details: aptamer strand: ATP DNA aptamer (quencher-CACCTGGGGGAGTATTGCGGAGGAAGG + anchor), 100 nM annealed; ATP concentration: 500 uM; one replicate
Procedure, shortened: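 The fluorescence ratio divides summed target-cycle Cy3 intensity by summed buffer-cycle Cy3 intensity for each cluster and is averaged per switch-domain sequence. Cy3-labelled switching-strand clusters on a modified Illumina MiSeq flow-cell were annealed to 100 nM quencher-labelled ATP aptamer, then imaged in selection buffer and again after 15 min with 500 uM ATP at 22 °C. Five such cycles were run, with NaOH stripping and re-annealing between them, and clusters outside 100-1000 RFU were excluded.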
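Also: ATP exposure 15 min at 22 °C before imaging.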

## TTCGGTATGA
  switch fluorescence ratio: 0.99

## TTCATTTGGC
  switch fluorescence ratio: 1.01

## CACCTCGTTC
  switch fluorescence ratio: 0.986

## CCAACGGCAC
  switch fluorescence ratio: 2.18

## AGATGCTCTT
  switch fluorescence ratio: 0.978

## TTAGGCTAAG
  switch fluorescence ratio: 0.995

## ATCTAAGTCG
  switch fluorescence ratio: 0.999

## TGATCTTAAG
  switch fluorescence ratio: 0.98

## CGCGGCCTCA
  switch fluorescence ratio: 1.13

## CTCATAGTCA
  switch fluorescence ratio: 0.991

## ATGGTAGACT
  switch fluorescence ratio: 0.988

## ATGGGGTCCC
  switch fluorescence ratio: 1.02

## TCATATGGGT
  switch fluorescence ratio: 0.975

## TTTCAAGGTC
  switch fluorescence ratio: 0.971

## CCATCGTGCC
  switch fluorescence ratio: 1.01

## GGGAACAAGG
  switch fluorescence ratio: 1.01

## CATGAGCTAA
  switch fluorescence ratio: 1.05

## ATGTCATAAT
  switch fluorescence ratio: 0.98

## AATAGACCCA
  switch fluorescence ratio: 1.02

## CACGGGGCCA
  switch fluorescence ratio: 1.05

## TAACGTGGCA
  switch fluorescence ratio: 0.968

## TTAAAATAG
  switch fluorescence ratio: 1

## TATGCCACGG
  switch fluorescence ratio: 0.998

## TGTTTACGAG
  switch fluorescence ratio: 0.999

## CTCCAGGCTG
  switch fluorescence ratio: 1.78

## TCATGTGCC
  switch fluorescence ratio: 1.01

## TTCTATTGCC
  switch fluorescence ratio: 1.05

## ATGGACGGGC
  switch fluorescence ratio: 1.1

## CTCTAGGTAG
  switch fluorescence ratio: 1.13

## GACTCCTTTT
  switch fluorescence ratio: 1.08

## ATGTTAGAGA
  switch fluorescence ratio: 1.01

## TGCAGACCTT
  switch fluorescence ratio: 1.17

## GCCGTTTTAT
  switch fluorescence ratio: 0.98

## TCCTCCTTAG
  switch fluorescence ratio: 1.89

## GAAGCTTTGA
  switch fluorescence ratio: 1

## AAACCTGGGG
  switch fluorescence ratio: 1.04

## AGGGCTAATG
  switch fluorescence ratio: 0.99

## CCCACTAATA
  switch fluorescence ratio: 1.05

## CTTACGGACG
  switch fluorescence ratio: 1.31

## CCGTAAGCGG
  switch fluorescence ratio: 1.22

## CCATGGAACC
  switch fluorescence ratio: 1

## TTGTCGAACA
  switch fluorescence ratio: 1.1

## CGGGTACGTA
  switch fluorescence ratio: 0.96

## CGGTATTGC
  switch fluorescence ratio: 1.06

## GCTGACCCGC
  switch fluorescence ratio: 2.95

## TTGTCTTGCC
  switch fluorescence ratio: 1.04

## TTTGCTGGGC
  switch fluorescence ratio: 1

## TTAAGTGTGC
  switch fluorescence ratio: 1.06

## TCGCGCTTGT
  switch fluorescence ratio: 1.76

## CAAGCGAGTT
  switch fluorescence ratio: 0.968

## CTGATGTCCG
  switch fluorescence ratio: 1.02

## TCAGGCGTGG
  switch fluorescence ratio: 0.993

## ATATTCTTCA
  switch fluorescence ratio: 1.08

## AATCTGAGGA
  switch fluorescence ratio: 1.03

## TTGGTCTTTA
  switch fluorescence ratio: 0.971

## GAGGCACTAG
  switch fluorescence ratio: 1.29

## GTGGAATAGT
  switch fluorescence ratio: 0.98

## ATTGTGATTT
  switch fluorescence ratio: 0.986

## GCTTACTAAT
  switch fluorescence ratio: 0.986

## TCGACACGGG
  switch fluorescence ratio: 1.05

## TTCGCTTAT
  switch fluorescence ratio: 1.11

## CCACTGGGTC
  switch fluorescence ratio: 1.04

## CCTGGTTTAT
  switch fluorescence ratio: 1.01

## ACTAGCGGCA
  switch fluorescence ratio: 1

## TCTGGGGGAT
  switch fluorescence ratio: 1.08

## AGGGAGTACG
  switch fluorescence ratio: 1.02

## AAAGCTCGGT
  switch fluorescence ratio: 1.04

## TTCCAGTCCG
  switch fluorescence ratio: 1.03

## TAAGCTTAGG
  switch fluorescence ratio: 1.11

## TCGGAATAAC
  switch fluorescence ratio: 2.35

## CGGAGAGGTA
  switch fluorescence ratio: 1.02

## ACACCCTATT
  switch fluorescence ratio: 1.08

## TGAGACCGCC
  switch fluorescence ratio: 0.997

## CACGTCTCAA
  switch fluorescence ratio: 1.02

## TTCTAACGAC
  switch fluorescence ratio: 0.963

## TACGACACTT
  switch fluorescence ratio: 1.46

## GCCATACTA
  switch fluorescence ratio: 1.52

## ATAAGGGAT
  switch fluorescence ratio: 1.01

## AAGTGTAACT
  switch fluorescence ratio: 1.01

## AACATCTTCA
  switch fluorescence ratio: 1.02

## TGCTGGCCTA
  switch fluorescence ratio: 1.01

## AAGAGGCAGA
  switch fluorescence ratio: 0.998

## GACCGAGGAT
  switch fluorescence ratio: 1.01

## TGGGCCCATA
  switch fluorescence ratio: 1.05

## AGTAAAATTC
  switch fluorescence ratio: 1.03

## AGTTATAGAA
  switch fluorescence ratio: 0.933

## GTGTTTCGGA
  switch fluorescence ratio: 0.978

## CTGCGCCGGG
  switch fluorescence ratio: 1.04

## GGTCAAACT
  switch fluorescence ratio: 0.998

## AAGGGCTGAA
  switch fluorescence ratio: 0.998

## AAGGTATACA
  switch fluorescence ratio: 1.01

## CCAGCAGGGG
  switch fluorescence ratio: 2.38

## GAACTATATG
  switch fluorescence ratio: 0.976

## AATAAGCGGA
  switch fluorescence ratio: 1.02

## CAGGTGCGC
  switch fluorescence ratio: 1.15

## ATAGACGCCG
  switch fluorescence ratio: 1.09

## TTATAAACAC
  switch fluorescence ratio: 1.09

## TTGGTCTAGC
  switch fluorescence ratio: 1.03

## GGGAAACGTA
  switch fluorescence ratio: 1.02

## CTGTTGGCG
  switch fluorescence ratio: 0.943

## TCCCAGAGGA
  switch fluorescence ratio: 1.22

## ACTTCACAGT
  switch fluorescence ratio: 1.31

## CGGACAATCT
  switch fluorescence ratio: 1.14

## TCGAAGCGAT
  switch fluorescence ratio: 3.3

## TCGATATAGC
  switch fluorescence ratio: 1.03

## TCTGAGGGTC
  switch fluorescence ratio: 1.02

## ACATCAATCG
  switch fluorescence ratio: 1.08

## TAAGCGTATT
  switch fluorescence ratio: 1

## TAAGAACTTG
  switch fluorescence ratio: 1.01

## TGGGGAATGA
  switch fluorescence ratio: 0.962

## TCGGGTTTCT
  switch fluorescence ratio: 0.955

## AAAAACGGTT
  switch fluorescence ratio: 0.968

## CGAGTAACTT
  switch fluorescence ratio: 0.997

## CCTACCTGCG
  switch fluorescence ratio: 2.18

## CGGGAGATGA
  switch fluorescence ratio: 1

## TCCGAGCCCG
  switch fluorescence ratio: 1.09

## GTTACCACAG
  switch fluorescence ratio: 1.03

## GTTATGAAGT
  switch fluorescence ratio: 1.01

## ATTCGTAGA
  switch fluorescence ratio: 0.93

## CCAAAGCTAT
  switch fluorescence ratio: 1.61

## GTGCCAATGT
  switch fluorescence ratio: 0.987

## ATTTACGGAC
  switch fluorescence ratio: 1.48

## TTATAACTGT
  switch fluorescence ratio: 0.959

## CCCCGATCGG
  switch fluorescence ratio: 0.962

## CCCGGATCAT
  switch fluorescence ratio: 0.967

## CAAATATATC
  switch fluorescence ratio: 0.96

## GCTCTACAGC
  switch fluorescence ratio: 0.978

## TATTCGGGTG
  switch fluorescence ratio: 1

## GAGGGCTCCA
  switch fluorescence ratio: 1

## TCAAAGAC
  switch fluorescence ratio: 1.02

## AGGCGGTCGT
  switch fluorescence ratio: 0.932

## TATTAGGATT
  switch fluorescence ratio: 0.993

## GGTGTCCAAG
  switch fluorescence ratio: 0.972

## GATAAATATT
  switch fluorescence ratio: 1.01

## CGTCGTTCCT
  switch fluorescence ratio: 1.02

## TCCAACTTAG
  switch fluorescence ratio: 1.05

## TAGATGAGGG
  switch fluorescence ratio: 0.959

## TGGTCATTCC
  switch fluorescence ratio: 1.14

## GTATTACTTT
  switch fluorescence ratio: 0.998

## ACCGATCCTG
  switch fluorescence ratio: 1.08

## CGGCCCATAT
  switch fluorescence ratio: 1.05

## AAACCTAAGT
  switch fluorescence ratio: 1.02

## GGAGCTGTAT
  switch fluorescence ratio: 1.08

## ACGTCGTGTA
  switch fluorescence ratio: 1.01

## CGTATCGGTC
  switch fluorescence ratio: 0.994

## TACGGTTTAA
  switch fluorescence ratio: 1.04

## TTTACTTAAT
  switch fluorescence ratio: 1.06

## CCTAAGGGTA
  switch fluorescence ratio: 0.963

## AAGAAGCTGG
  switch fluorescence ratio: 0.974

## GACGGATACT
  switch fluorescence ratio: 1.66

## GGGGATCTGA
  switch fluorescence ratio: 0.939

## GCCCCGTCAA
  switch fluorescence ratio: 1.3

## ACGAGGGCGA
  switch fluorescence ratio: 1.05

## CCAACAGTGT
  switch fluorescence ratio: 1.18

## GCACTTTATG
  switch fluorescence ratio: 0.979

## GGGACATACC
  switch fluorescence ratio: 1.25

## TCCGGGAAGG
  switch fluorescence ratio: 1.01

## TTTCTCAAGA
  switch fluorescence ratio: 1.04

## CATACGTGTT
  switch fluorescence ratio: 1.04

## CCCAGGCTGG
  switch fluorescence ratio: 1.04

## TTTAGGGCTC
  switch fluorescence ratio: 1.01

## ACATTCTGGG
  switch fluorescence ratio: 1.01

## GATCTAGCTA
  switch fluorescence ratio: 1.02

## GAGCTGGAAA
  switch fluorescence ratio: 1.02

## GGGTTCGAA
  switch fluorescence ratio: 1.04

## CAACGTCAC
  switch fluorescence ratio: 1.92

## GGGCGGGATA
  switch fluorescence ratio: 1.01

## GAGGGGTCAC
  switch fluorescence ratio: 1.03

## GGTAACCGTC
  switch fluorescence ratio: 1.03

## CTTGGTGGAT
  switch fluorescence ratio: 0.993

## GAGCAGGCTC
  switch fluorescence ratio: 1.04

## TTTCCATAG
  switch fluorescence ratio: 1.06

## TTTTTCGGAC
  switch fluorescence ratio: 1

## GTCACAATG
  switch fluorescence ratio: 1.06

## TCCACTTAAT
  switch fluorescence ratio: 1.05

## CGTCTTCAA
  switch fluorescence ratio: 0.988

## CAGAGCGGCG
  switch fluorescence ratio: 0.95

## CTTTCGCTGC
  switch fluorescence ratio: 2.97

## TGAGTCCCCA
  switch fluorescence ratio: 1.02

## TAGAAAATTC
  switch fluorescence ratio: 1.07

## TTTAGGTTTC
  switch fluorescence ratio: 0.97

## TACATCTAGC
  switch fluorescence ratio: 1.06

## GTGGTTAGCT
  switch fluorescence ratio: 0.98

## AGACGTAATA
  switch fluorescence ratio: 1.67

## CGTAAATACC
  switch fluorescence ratio: 1.71

## ACTTGCTACG
  switch fluorescence ratio: 1.27

## GTTAGGATCG
  switch fluorescence ratio: 1.02

## AATCGGTACG
  switch fluorescence ratio: 0.962

## TGCACTAGAT
  switch fluorescence ratio: 1.04

## CGGCAATGCG
  switch fluorescence ratio: 0.985

## GACTCCAAA
  switch fluorescence ratio: 0.999

## CGAAGAGCGG
  switch fluorescence ratio: 0.988

## AATTGTAACA
  switch fluorescence ratio: 1.04

## AGCTTTAAGA
  switch fluorescence ratio: 0.973

## TAAGTCTTGG
  switch fluorescence ratio: 0.998

## GCGCCGCGGG
  switch fluorescence ratio: 0.99

## TTGCTTCGAG
  switch fluorescence ratio: 0.944

## TAGGCGCACT
  switch fluorescence ratio: 1.03

## AGCCATGAGA
  switch fluorescence ratio: 1

## ACGCGCCTGC
  switch fluorescence ratio: 1.11
